Some of the results follow.
Key:
Test in all cases: glycan array binding signal (z-score within array); higher = stronger binding
Settings in all cases: glycan notation: IUPAC condensed, linker removed
Fuc(a1-3)GlcNAc = molecular target: Fuc(a1-3)GlcNAc
Outline: (§1)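 The Consortium for Functional Glycomics database supplied 3228 glycan arrays, of which those lacking an available protein sequence were dropped. The binding signal, a within-array Z-score, was averaged across arrays of the same protein sequence and across linkers. Negative scores can be read as non-binding.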

[1] = molecular target: Fuc(a1-3)[Gal(b1-4)]Glc6S
Outline: as §1

[2] = molecular target: Fuc(a1-3)[Gal(b1-4)]GlcNAc
Outline: as §1

[3] = molecular target: Fuc(a1-3)[Gal(b1-4)]GlcNAc(b1-2)Man
Outline: as §1

[4] = molecular target: Fuc(a1-3)[Gal(b1-4)]GlcNAc(b1-2)Man(a1-3)[Fuc(a1-3)[Gal(b1-4)]GlcNAc(b1-2)Man(a1-6)]Man(b1-4)GlcNAc(b1-4)GlcNAc
Outline: as §1

[5] = molecular target: Fuc(a1-3)[Gal(b1-4)]GlcNAc(b1-2)Man(a1-3)[Fuc(a1-3)[Gal(b1-4)]GlcNAc(b1-2)Man(a1-6)]Man(b1-4)GlcNAc(b1-4)[Fuc(a1-6)]GlcNAc
Outline: as §1

[6] = molecular target: Fuc(a1-3)[Gal(b1-4)]GlcNAc(b1-3)Gal(b1-3)[Fuc(a1-4)]GlcNAc
Outline: as §1

[7] = molecular target: Fuc(a1-3)[Gal(b1-4)]GlcNAc(b1-3)Gal(b1-4)[Fuc(a1-3)]GlcNAc
Outline: as §1

[8] = molecular target: Fuc(a1-3)[Gal(b1-4)]GlcNAc(b1-3)Gal(b1-4)[Fuc(a1-3)]GlcNAc(b1-3)Gal(b1-4)[Fuc(a1-3)]GlcNAc
Outline: as §1

[9] = molecular target: Fuc(a1-3)[Gal(b1-4)]GlcNAc(b1-3)GalNAc
Outline: as §1

[10] = molecular target: Fuc(a1-3)[Gal(b1-4)]GlcNAc(b1-6)GalNAc
Outline: as §1

[11] = molecular target: Fuc(a1-3)[Gal(b1-4)]GlcNAc(b1-6)[Gal(b1-3)GlcNAc(b1-3)]Gal(b1-4)Glc
Outline: as §1

[12] = molecular target: Fuc(a1-3)[Gal(b1-4)]GlcNAc6S
Outline: as §1

[13] = molecular target: Fuc(a1-3)[Gal3S(b1-4)]Glc
Outline: as §1

[14] = molecular target: Fuc(a1-3)[Gal3S(b1-4)]GlcNAc
Outline: as §1

[15] = molecular target: Fuc(a1-3)[Gal3S(b1-4)]GlcNAc6S
Outline: as §1

[16] = molecular target: Fuc(a1-3)[GalNAc(b1-4)]GlcNAc
Outline: as §1

[17] = molecular target: Fuc(a1-3)[GalNAc(b1-4)]GlcNAc6S
Outline: as §1

Fuc(a1-4)GlcNAc = molecular target: Fuc(a1-4)GlcNAc
Outline: as §1

Fuc(b1-3)GlcNAc = molecular target: Fuc(b1-3)GlcNAc
Outline: as §1

Gal(a1-2)Gal = molecular target: Gal(a1-2)Gal
Outline: as §1

Gal(a1-3)Gal = molecular target: Gal(a1-3)Gal
Outline: as §1

Gal(a1-3)Gal(b1-3)GlcNAc = molecular target: Gal(a1-3)Gal(b1-3)GlcNAc
Outline: as §1

[18] = molecular target: Gal(a1-3)Gal(b1-3)GlcNAc(b1-2)Man
Outline: as §1

[19] = molecular target: Gal(a1-3)Gal(b1-3)GlcNAc(b1-2)Man(a1-3)[Gal(a1-3)Gal(b1-3)GlcNAc(b1-2)Man(a1-6)]Man(b1-4)GlcNAc(b1-4)GlcNAc
Outline: as §1

[20] = molecular target: Gal(a1-3)Gal(b1-3)GlcNAc(b1-3)GalNAc
Outline: as §1

[21] = molecular target: Gal(a1-3)Gal(b1-3)GlcNAc(b1-6)GalNAc
Outline: as §1

[22] = molecular target: Gal(a1-3)Gal(b1-3)[Fuc(a1-4)]GlcNAc(b1-2)Man(a1-3)[Gal(a1-3)Gal(b1-3)[Fuc(a1-4)]GlcNAc(b1-2)Man(a1-6)]Man(b1-4)GlcNAc(b1-4)GlcNAc
Outline: as §1

Gal(a1-3)Gal(b1-4)Glc = molecular target: Gal(a1-3)Gal(b1-4)Glc
Outline: as §1

Gal(a1-3)Gal(b1-4)GlcNAc = molecular target: Gal(a1-3)Gal(b1-4)GlcNAc
Outline: as §1

[23] = molecular target: Gal(a1-3)Gal(b1-4)GlcNAc(b1-2)Man
Outline: as §1

[24] = molecular target: Gal(a1-3)Gal(b1-4)GlcNAc(b1-2)Man(a1-3)[Gal(a1-3)Gal(b1-4)GlcNAc(b1-2)Man(a1-6)]Man(b1-4)GlcNAc(b1-4)GlcNAc
Outline: as §1

[25] = molecular target: Gal(a1-3)Gal(b1-4)GlcNAc(b1-3)GalNAc
Outline: as §1

[26] = molecular target: Gal(a1-3)Gal(b1-4)GlcNAc(b1-6)GalNAc
Outline: as §1

[27] = molecular target: Gal(a1-3)Gal(b1-4)[Fuc(a1-3)]GlcNAc
Outline: as §1

[28] = molecular target: Gal(a1-3)Gal(b1-4)[Fuc(a1-3)]GlcNAc(b1-2)Man(a1-3)[Gal(a1-3)Gal(b1-4)[Fuc(a1-3)]GlcNAc(b1-2)Man(a1-6)]Man(b1-4)GlcNAc(b1-4)GlcNAc
Outline: as §1

Gal(a1-3)GalNAc = molecular target: Gal(a1-3)GalNAc
Outline: as §1

[29] = molecular target: Gal(a1-3)[Gal(a1-4)]Gal(b1-4)GlcNAc
Outline: as §1

[30] = molecular target: Gal(a1-4)Gal(b1-3)GlcNAc(b1-2)Man(a1-3)[Gal(a1-4)Gal(b1-3)GlcNAc(b1-2)Man(a1-6)]Man(b1-4)GlcNAc(b1-4)GlcNAc
Outline: as §1

Gal(a1-4)Gal(b1-4)Glc = molecular target: Gal(a1-4)Gal(b1-4)Glc
Outline: as §1

Gal(a1-4)Gal(b1-4)GlcNAc = molecular target: Gal(a1-4)Gal(b1-4)GlcNAc
Outline: as §1

[31] = molecular target: Gal(a1-4)Gal(b1-4)GlcNAc(b1-2)Man(a1-3)[Gal(a1-4)Gal(b1-4)GlcNAc(b1-2)Man(a1-6)]Man(b1-4)GlcNAc(b1-4)GlcNAc
Outline: as §1

[32] = molecular target: Gal(a1-4)Gal(b1-4)GlcNAc(b1-3)Gal(b1-4)Glc
Outline: as §1

Gal(a1-4)GlcNAc = molecular target: Gal(a1-4)GlcNAc
Outline: as §1

Gal(a1-6)Glc = molecular target: Gal(a1-6)Glc
Outline: as §1

B1: FimA-N1 (Actinomyces oris) (protein)
chain: MHHHHHHSSGVDLGTENLYFQSNATETPNYGNIKTDATGSLVIHKHLTGGGKDIGTPTGTAQNADDKGPAVEGVVFTAYPITDINLKDPAGWDTISNLSRTGVPDSACANPAAPTLGAHQFGTPKVSPATTKEGLATITEMPVQAYLVCETTTPGDIVQKAKPFVVTIPHPNTAAGADGQWIYDVNVYPKNEAIDVDKTIQAQK
Q: B1 was tested. Which “glycan array binding signal (z-score)” value (Fuc(a1-3)GlcNAc) did it give?
A: The value was -0.336.

Q: And the “glycan array binding signal (z-score)” value [1]?
A: Its value is 1.03.

Q: And the “glycan array binding signal (z-score)” value [2]?
A: The value was -0.288.

Q: What about the “glycan array binding signal (z-score)” value [3] of the same binder?
A: The value was 0.002.

Q: What about the “glycan array binding signal (z-score)” value [4] of the same binder?
A: The value was 0.122.

Q: What about the “glycan array binding signal (z-score)” value [5] of the same binder?
A: The value was -0.215.

Q: What about the “glycan array binding signal (z-score)” value [6] of the same binder?
A: Its value is -0.054.

Q: And the “glycan array binding signal (z-score)” value [7]?
A: Its value is 0.245.

Q: What about the “glycan array binding signal (z-score)” value [8] of the same binder?
A: The value was -0.518.

Q: What about the “glycan array binding signal (z-score)” value [9] of the same binder?
A: The value was -0.221.

Q: And the “glycan array binding signal (z-score)” value [10]?
A: The value was -0.055.

Q: What about the “glycan array binding signal (z-score)” value [11] of the same binder?
A: The value was -0.312.

Q: What about the “glycan array binding signal (z-score)” value [12] of the same binder?
A: Its value is -0.211.

Q: What about the “glycan array binding signal (z-score)” value [13] of the same binder?
A: Its value is -0.164.

Q: And the “glycan array binding signal (z-score)” value [14]?
A: The value was 0.64.

Q: What about the “glycan array binding signal (z-score)” value [15] of the same binder?
A: Its value is 0.124.

Q: And the “glycan array binding signal (z-score)” value [16]?
A: Its value is 0.433.

Q: What about the “glycan array binding signal (z-score)” value [17] of the same binder?
A: Its value is -0.33.

Q: What about the “glycan array binding signal (z-score)” value (Fuc(a1-4)GlcNAc) of the same binder?
A: The value was 0.275.

Q: And the “glycan array binding signal (z-score)” value (Fuc(b1-3)GlcNAc)?
A: Its value is -0.154.

Q: What about the “glycan array binding signal (z-score)” value (Gal(a1-2)Gal) of the same binder?
A: Its value is -0.423.

Q: And the “glycan array binding signal (z-score)” value (Gal(a1-3)Gal)?
A: The value was -0.097.

Q: What about the “glycan array binding signal (z-score)” value (Gal(a1-3)Gal(b1-3)GlcNAc) of the same binder?
A: The value was 1.89.

Q: What about the “glycan array binding signal (z-score)” value [18] of the same binder?
A: The value was -0.417.

Q: What about the “glycan array binding signal (z-score)” value [19] of the same binder?
A: The value was -0.21.

Q: And the “glycan array binding signal (z-score)” value [20]?
A: The value was -0.231.

Q: And the “glycan array binding signal (z-score)” value [21]?
A: Its value is -0.199.

Q: And the “glycan array binding signal (z-score)” value [22]?
A: The value was -0.118.

Q: What about the “glycan array binding signal (z-score)” value (Gal(a1-3)Gal(b1-4)Glc) of the same binder?
A: Its value is -0.217.

Q: What about the “glycan array binding signal (z-score)” value (Gal(a1-3)Gal(b1-4)GlcNAc) of the same binder?
A: Its value is 0.372.

Q: And the “glycan array binding signal (z-score)” value [23]?
A: Its value is -0.38.

Q: What about the “glycan array binding signal (z-score)” value [24] of the same binder?
A: Its value is 1.63.

Q: What about the “glycan array binding signal (z-score)” value [25] of the same binder?
A: The value was -0.363.

Q: And the “glycan array binding signal (z-score)” value [26]?
A: The value was -0.093.

Q: And the “glycan array binding signal (z-score)” value [27]?
A: Its value is -0.28.

Q: And the “glycan array binding signal (z-score)” value [28]?
A: The value was -0.107.

Q: And the “glycan array binding signal (z-score)” value (Gal(a1-3)GalNAc)?
A: Its value is -0.307.

Q: And the “glycan array binding signal (z-score)” value [29]?
A: Its value is 0.219.

Q: And the “glycan array binding signal (z-score)” value [30]?
A: Its value is 0.288.

Q: And the “glycan array binding signal (z-score)” value (Gal(a1-4)Gal(b1-4)Glc)?
A: The value was -0.077.

Q: What about the “glycan array binding signal (z-score)” value (Gal(a1-4)Gal(b1-4)GlcNAc) of the same binder?
A: Its value is 0.483.

Q: And the “glycan array binding signal (z-score)” value [31]?
A: The value was 0.207.

Q: And the “glycan array binding signal (z-score)” value [32]?
A: The value was -0.445.

Q: What about the “glycan array binding signal (z-score)” value (Gal(a1-4)GlcNAc) of the same binder?
A: Its value is -0.245.

Q: And the “glycan array binding signal (z-score)” value (Gal(a1-6)Glc)?
A: Its value is -0.164.
